# From patent publication US8067379B2, “Sulfur compounds as inhibitors of hepatitis C virus NS3 serine protease” (Schering Corporation, priority 2004, dated 2011)
# Molecular target: Recombinant heterodimeric HCV NS3/NS4A protease (strain 1a) (Hepatitis C virus genotype 1a, UniProt P27958)
# Test: Spectrophotometric assay for HCV serine protease inhibitory activity (chromogenic ester substrates)
# Format: biochemical
# Settings: Table 3A; class symbols; read-out: Ki* Range
row,SMILES,Ki [nM]
1,C=CCNC(=O)C(=O)C(CCCC)NC(=O)[C@@H]1[C@@H]2[C@H](CN1C(=O)[C@@H](NC(=O)NC1(CS(=O)(=O)CC(F)(F)F)CCCCC1)C(C)(C)C)C2(C)C (some centres unmarked) [Compound 511],< 75
2,C#CCCC(NC(=O)[C@@H]1[C@@H]2[C@H](CN1C(=O)[C@@H](NC(=O)NC1(CS(=O)(=O)C(C)(C)C)CCCCC1)C(C)(C)C)C2(C)C)C(=O)C(=O)NC1CCCC1 (some centres unmarked) [Compound 512],< 75
3,CCNC(=O)C(=O)C(CC1CC1)NC(=O)[C@@H]1[C@@H]2[C@H](CN1C(=O)[C@@H](NC(=O)NC1(CS(=O)(=O)C(C)(C)C)CCCCC1)C1(C)CCCCC1)C2(C)C (some centres unmarked) [Compound 513],< 75
4,CC(C)(C)[C@H](NC(=O)NC1(CS(=O)(=O)C(C)(C)C)CCCCC1)C(=O)N1C[C@H]2[C@@H]([C@H]1C(=O)NC(CCC(F)(F)F)C(=O)C(=O)NC1CC1)C2(C)C (some centres unmarked) [Compound 514],< 75
5,CC1([C@H](NC(=O)NC2(CS(=O)(=O)C(C)(C)C)CCCCC2)C(=O)N2C[C@H]3[C@@H]([C@H]2C(=O)NC(CCC(F)(F)F)C(=O)C(=O)NC2CC2)C3(C)C)CCCCC1 (some centres unmarked) [Compound 515],< 75
6,C=CCNC(=O)C(=O)C(CC1CC1)NC(=O)[C@@H]1[C@@H]2[C@H](CN1C(=O)[C@@H](NC(=O)NC1(CS(=O)(=O)C(C)(C)c3ccccc3)CCCCC1)C1(C)CCCCC1)C2(C)C (some centres unmarked) [Compound 516],< 75
7,CC1([C@H](NC(=O)NC2(CS(=O)(=O)C(C)(C)c3ccccc3)CCCCC2)C(=O)N2C[C@H]3[C@@H]([C@H]2C(=O)NC(CC2CC2)C(=O)C(=O)NC2CC2)C3(C)C)CCCCC1 (some centres unmarked) [Compound 517],75 to 250
8,CCCC(NC(=O)[C@@H]1[C@@H]2[C@H](CN1C(=O)[C@@H](NC(=O)NC1(CS(=O)(=O)C(C)(C)c3ccccc3)CCCCC1)C1(C)CCCCC1)C2(C)C)C(=O)C(=O)NC1CC1 (some centres unmarked) [Compound 518],< 75
9,CC(C)(C)[C@H](NC(=O)NC1(CS(=O)(=O)C(C)(C)C)CCCCC1)C(=O)N1C[C@H]2[C@@H]([C@H]1C(=O)NC(CC1CCC1)C(=O)C(=O)NC1CC1)C2(C)C (some centres unmarked) [Compound 519],< 75
10,CC1(C)[C@@H]2[C@@H](C(=O)NC(CC3CCC3)C(=O)C(=O)NC3CC3)N(C(=O)[C@@H](NC(=O)NC3(CS(=O)(=O)C(C)(C)C)CCCCC3)C3CCCCC3)C[C@@H]21 (some centres unmarked) [Compound 520],75 to 250
11,CCCCC(NC(=O)[C@@H]1[C@@H]2[C@H](CN1C(=O)[C@@H](NC(=O)NC1(CS(=O)(=O)C(C)(C)CC)CCCCC1)C1(C)CCCCC1)C2(C)C)C(=O)C(=O)NC1CC1 (some centres unmarked) [Compound 521],< 75
12,CCCC(NC(=O)[C@@H]1[C@@H]2[C@H](CN1C(=O)[C@@H](NC(=O)NC1(CS(=O)(=O)C(C)(C)CC)CCCCC1)C1(C)CCCCC1)C2(C)C)C(=O)C(=O)NC1CC1 (some centres unmarked) [Compound 522],< 75
13,CC(C)CCS(=O)(=O)CC1(NC(=O)N[C@H](C(=O)N2C[C@H]3[C@@H]([C@H]2C(=O)NC(CC2CC2)C(=O)C(=O)NC2CC2)C3(C)C)C2(C)CCCCC2)CCCCC1 (some centres unmarked) [Compound 523],< 75
14,C=CCNC(=O)C(=O)C(CC1CC1)NC(=O)[C@@H]1[C@@H]2[C@H](CN1C(=O)[C@@H](NC(=O)NC1(CS(=O)(=O)CCC(C)C)CCCCC1)C1(C)CCCCC1)C2(C)C (some centres unmarked) [Compound 524],< 75
15,C=CCNC(=O)C(=O)C(CC1CC1)NC(=O)[C@@H]1[C@@H]2[C@H](CN1C(=O)[C@@H](NC(=O)NC1(CS(=O)(=O)CC(F)(F)F)CCCCC1)C1(C)CCCCC1)C2(C)C (some centres unmarked) [Compound 525],< 75
16,CNC(=O)C(=O)C(CCC1CC1)NC(=O)[C@@H]1[C@@H]2[C@H](CN1C(=O)[C@@H](NC(=O)NC1(CS(=O)(=O)C(C)(C)C)CCCCC1)C(C)(C)C)C2(C)C (some centres unmarked) [Compound 526],< 75

row,SMILES,Ki [nM]
1,CNC(=O)C(=O)C(CCC1CC1)NC(=O)[C@@H]1[C@@H]2[C@H](CN1C(=O)[C@@H](NC(=O)NC1(CS(=O)(=O)C(C)(C)C)CCCCC1)C1(C)CCCCC1)C2(C)C (some centres unmarked) [Compound 527],< 75
2,C=CCNC(=O)C(=O)C(CCC1CCC1)NC(=O)[C@@H]1[C@@H]2[C@H](CN1C(=O)[C@@H](NC(=O)NC1(CS(=O)(=O)C(C)(C)C)CCCCC1)C(C)(C)C)C2(C)C (some centres unmarked) [Compound 528],< 75
3,CCS(=O)(=O)CC1(NC(=O)N[C@H](C(=O)N2C[C@H]3[C@@H]([C@H]2C(=O)NC(CC2CC2)C(=O)C(=O)NC2CC2)C3(C)C)C2(C)CCCCC2)CCCCC1 (some centres unmarked) [Compound 529],< 75
4,C=CCNC(=O)C(=O)C(CC1CC1)NC(=O)[C@@H]1[C@@H]2[C@H](CN1C(=O)[C@@H](NC(=O)NC1(CS(=O)(=O)CC)CCCCC1)C1(C)CCCCC1)C2(C)C (some centres unmarked) [Compound 530],< 75
5,CCCC(NC(=O)[C@@H]1[C@@H]2[C@H](CN1C(=O)[C@@H](NC(=O)NC1(CS(=O)(=O)C(C)(C)C)CCCCC1)C1(C)CCCCC1)[C@@]2(C)COCc1ccccc1)C(=O)C(=O)NC1CC1 (some centres unmarked) [Compound 531],< 75
6,CC1([C@H](NC(=O)NC2(CS(=O)(=O)C(C)(C)C)CCCCC2)C(=O)N2C[C@H]3[C@@H]([C@H]2C(=O)NC(CC2CC2)C(=O)C(=O)NC2CC2)[C@]3(C)COCc2ccccc2)CCCCC1 (some centres unmarked) [Compound 532],< 75
7,CCCC(NC(=O)[C@@H]1[C@@H]2[C@H](CN1C(=O)[C@@H](NC(=O)NC1(CS(=O)(=O)C(C)(C)C)CCCCC1)C1(C)CCCCC1)C2(C)C)C(=O)C(=O)NC(C)COC (some centres unmarked) [Compound 533],75 to 250
8,CCCC(NC(=O)[C@@H]1[C@@H]2[C@H](CN1C(=O)[C@@H](NC(=O)NC1(CS(=O)(=O)C(C)(C)C)CCCCC1)C1(C)CCCCC1)C2(C)C)C(=O)C(=O)NCCC(C)C (some centres unmarked) [Compound 534],> 250
9,C=CCNC(=O)C(=O)C(CCC1CCC1)NC(=O)[C@@H]1[C@@H]2[C@H](CN1C(=O)[C@@H](NC(=O)NC1(CS(=O)(=O)C(C)(C)C)CCCCC1)C1(C)CCCCC1)C2(C)C (some centres unmarked) [Compound 535],< 75
10,CCCC(NC(=O)[C@@H]1[C@@H]2[C@H](CN1C(=O)[C@@H](NC(=O)NC1(CS(=O)(=O)C(C)(C)CC)CCCCC1)C1(C)CCCCC1)[C@@]2(C)COCc1ccccc1)C(=O)C(=O)NC1CC1 (some centres unmarked) [Compound 536],< 75
11,CCC(C)(C)S(=O)(=O)CC1(NC(=O)N[C@H](C(=O)N2C[C@H]3[C@@H]([C@H]2C(=O)NC(CC2CC2)C(=O)C(=O)NC2CC2)[C@]3(C)COCc2ccccc2)C2(C)CCCCC2)CCCCC1 (some centres unmarked) [Compound 537],< 75
12,C=CCNC(=O)C(=O)C(CCC1CC1)NC(=O)[C@@H]1[C@H]2CC(C)(C)O[C@H]2CN1C(=O)[C@@H](NC(=O)NC1(CS(=O)(=O)C(C)(C)C)CCCCC1)C(C)(C)C (some centres unmarked) [Compound 538],< 75
13,CCCC(NC(=O)[C@@H]1[C@@H]2[C@H](CN1C(=O)[C@@H](NC(=O)NC1(CS(=O)(=O)CC)CCCCC1)C1(C)CCCCC1)C2(C)C)C(=O)C(=O)NC1CC1 (some centres unmarked) [Compound 539],< 75
14,CC1([C@H](NC(=O)NC2(CS(=O)(=O)C(C)(C)C)CCC(F)(F)CC2)C(=O)N2C[C@H]3[C@@H]([C@H]2C(=O)NC(CC2CC2)C(=O)C(=O)NC2CC2)C3(C)C)CCCCC1 (some centres unmarked) [Compound 540],< 75
15,CC1([C@H](NC(=O)NC2(CS(=O)(=O)CC(F)(F)F)CCCCC2)C(=O)N2C[C@H]3[C@@H]([C@H]2C(=O)NC(CC2CC2)C(=O)C(=O)NC2CC2)C3(C)C)CCCCC1 (some centres unmarked) [Compound 541],< 75
16,CC1([C@H](NC(=O)NC2(CS(=O)(=O)CC(F)(F)F)CCCCC2)C(=O)N2C[C@H]3[C@@H]([C@H]2C(=O)NC(CCC2CC2)C(=O)C(=O)NC2CC2)C3(C)C)CCCCC1 (some centres unmarked) [Compound 542],< 75
